B1: PSMB1154 (antibody)
heavy: EVQLVESGGGEVQPGRSLRLTCAVSGFTLSRYGMHWVRQAPGKGLEWAALISYDGSNRYYADSVKGRFTISRDNSKNTVFLQMNSLRAEDTAVYYCARERESSGWFEGYFDYWGQGTTVTVSS[human IgG1 constant region not given here]
light: QLVLTQPPSVSVAPGQTARITCGGNNIGSKSVHWYQQKPGQAPVLVVYDNSDRPSGIPERFSGSNSGNTATLTISRVEVGDEADYYCQVWDSSSDHVVFGGGTKLTVLGQPKAAPSVTLFPPSSEELQANKATLVCLISDFYPGAVTVAWKADSSPVKAGVETTTPSKQSNNKYAASSYLSLTPEQWKSHRSYSCQVTHEGSTVEKTVAPTECS
B2: PSMB1157 (antibody)
heavy: EVQLVESGGGVVQPGRSLRLSCAASVRTFSGYGMHWVRQVPGKGLEWVAVISYDGSNRYYADSVKGRFTISRDNSKNTLYLQMNSLRTEDTAVYYCARDGNWGSLDLYFDLWGRGTLVTVSS[human IgG1 constant region not given here]
light: QSVLTQPPSVSGAPGQRVTISCTGSSSNIGADYDVHWYQQLPGTAPKLLIYVNNNRPSGVPDRFSGSRSGTSASLAITGLQADDEADYYCQSYDNTLSGVVFGGGTKLTVLGQPKAAPSVTLFPPSSEELQANKATLVCLISDFYPGAVTVAWKADSSPVKAGVETTTPSKQSNNKYAASSYLSLTPEQWKSHRSYSCQVTHEGSTVEKTVAPTECS

Legend:
[1] = SE HPLC of purified antibodies (% monomer post protein A); assay type: physicochemical; conditions: post protein A purification
Description: SE HPLC of the purified antibodies was performed by running samples on a TOSOH TSKgel BioAssist G3SWxl column, in 0.2 M Na Phosphate pH 6.8 at 1 mL/min on a Waters Alliance HPLC for 20 min. The column effluent was monitored by absorbance at 280 nm. For a molecule to be considered a therapeutic lead, it is critical that it can be produced in substantial amounts with high purity and high yield. Typically, purification losses are higher, and yields are lower with aggregation-prone proteins. The initial monomer percentage is generally considered a good surrogate indicator of the manufacturability of a protein.

[2] = Thermal stability by nanoDSF (Tm, Tagg); assay type: physicochemical; conditions: 20° C. to 95° C. at 1.0° C./minute
Description: The thermal stability (conformational stability) of the anti-PSMA antibodies was determined by nanoDSF method using a Prometheus instrument. Measurements were made by loading sample into 24 well capillary from a 384 well sample plate. Duplicate runs were performed. The thermal scans span from 20° C. to 95° C. at a rate of 1.0° C./minute. The data was processed to obtain integrated data and first derivation analysis for 330 nm, 350 nm, Ratio 330/350, and scatter data from which thermal transitions, onset of unfolding, Tm and Tagg were obtained.
“Tm” or “mid-point temperature” is the temperature midpoint of a thermal unfolding curve. It refers to the temperature where 50% of the amino acid sequence is in its native conformation and the other 50% is denatured. A thermal unfolding curve is typically plotted as a function of temperature. Tm is used to measure protein stability. […] The Tm can be readily determined using methods well known to those skilled in the art such as Circular Dichroism Spectroscopy, Differential Scanning Calorimetry, Differential Scanning Fluorimetry (both intrinsic and extrinsic dye based), UV spectroscopy, FT-IR and Isothermal Calorimetry (ITC).
“Tagg” refers to the temperature at which the protein starts to aggregate either through dimerization or oligomerization. The aggregation temperature detects the onset of aggregation, the temperature at which a protein will show a tendency to aggregate. Tagg can be determined by differential scanning calorimetry (DSC), Differential Scanning Fluorimetry (DSF) or by circular dichroism (CD). These techniques can detect small changes in the conformation of the protein and therefore detect the starting point of aggregation. Tagg values can be lower or higher than Tm. In cases where Tagg is lower than Tm, the protein either dimerizes and/or oligomerizes first and then starts unfolding later at higher temperatures than the Tagg. In cases where Tagg is higher than Tm, the protein starts to unfold first and then aggregates at a higher temperature than the Tm. Both events are commonly observed and depend on amino acid composition and protein conformation.
Thermal unfolding parameters, Tm or midpoint temperature of thermal unfolding and Tagg or aggregation temperature of selected anti-PSMA antibodies are shown in Table 23.

[3] = tested on: C4-2b cells, a cell line with high PSMA expression; assay: Cytotoxicity of MMAF-conjugated anti-PSMA antibodies on C4-2B cells (Cell Titer Glo, 72h); assay type: cell-based, human; conditions: MMAF-conjugated antibody, DAR ~4.0, 72h, read-out: Cytotox (IC50) C4-2B, DAR ~4.0
Description: mAbs were conjugated to a monomethyl auristatin F (MMAF) payload in a 96-well format to enable screening for optimal ADC candidates. 220 ug of each mAb (1 mg/mL in dPBS) was mixed with TCEP to a final concentration of 3 mM and incubated at 37° C. for 1r. Reduced mAbs were captured on protein A resin (Protein A HP Multitrap, GE) and washed 3× with 100 mM potassium phosphate containing 2 mM EDTA at pH 7.5 to remove TCEP.
A mixture of maleimide-PEG4-vcPAB-MMAF and N-ethyl maleimide (60:40 molar ratio, 100 uM total in 100 mM potassium phosphate containing 2 mM EDTA at pH 7.5) was prepared and the resin with bound mAb was resuspended in 300 uL of the maleimide mixture. Samples were rotated for 1 hr at RT followed by quenching with N—Ac-L-Cys (2.6 mM final). Resin was washed with dPBS and then bound mAbs were eluted with 100 mM sodium acetate pH 3.5 into 0.2-0.25 volumes of 1 M Tris pH 8.0 to neutralize. ADC concentrations and DAR (panel average of 4.0±0.5) of the eluted ADCs were determined by UV-Vis spectrophotometry at 248 and 280 nm based on previous reports (Hamblett, et. al., (2004) Clinical Cancer Research, 10, 7063-7070; Cruz and Kayser (2009) Cancers 11(6), 870)
C4-2b cells, a cell line with high PSMA expression, were cultured in RPMI1640 containing GlutaMAX, 25 mM HEPES and 10% fetal bovine serum (FBS) and then plated in white 96 well plates at 3000 cells per well (60 uL/well). Twenty four hours after plating, cells were treated with varying concentrations of the ADCs and then incubated at 37 C, 5% CO2. Following 72h of treatment, cell viability was assessed by Cell Titer Glo (Promega), according to manufacturer's instructions. Relative luminescence units (RLU) were detected in an Envision plate reader (Molecular Devices) and then normalized to untreated controls. The concentration at which there was 50% toxicity was determined by fitting the values to a 3-point sigmoidal curve where the top was constrained to 100% and interpolating the X-value at Y=50%.

[4] = Hydrophobic interaction chromatography (HIC); assay type: physicochemical; conditions: for Retention time: HIC, TSKgel Butyl-NPR column
Description: To assess surface their hydrophobicity, the anti-PSMA antibodies were evaluated by HIC (hydrophobic interaction chromatography) method. In summary samples were diluted 1:5 in high salt buffer A and approximately 10 ugs of sample was injected on a TOSOH TSKgel Butyl-NPR column on an Agilent HPLC instrument. HIC was run under a linear Amonium-S04 gradient from 1.1M-0M. UV280, and fluorescence (excitation at 280 nm and emission at 340 nm) signals were collected. The hydrophobicity propensity was evaluated as retention time relative to a control of known high hydrophobicity and reported as a hydrophobicity index (HI).

[5] = Cross interaction chromatography (CIC); assay type: physicochemical; conditions: Perfinity Custom IgG coupled column, PBS 0.2 ml/min
Description: To assess IgG cross-interaction potential the anti-PSMA antibodies were evaluated by CIC (cross interaction chromatography) method. In summary, samples were diluted to 0.11 mg/ml in PBS and 15 uL of sample were injected on a Perfinity Custom IgG coupled column. HIC was run by eluting with PBS at 0.2 ml/min while monitoring A280, A214 and A254. The IgG cross-interaction propensity was evaluated as retention time relative to a control of known IgG cross-interaction.

| Molecule | SEC (% monomer post protein A) [1] [%] | Fab Tm [2] [°C] | Tagg [2] [°C] | IC50 [3] [nM] | Retention time [4] [min] | Retention time [5] [min] | HI (hydrophobicity index) ([4]; retention time relative to high hydrophobicity control) |
| --- | --- | --- | --- | --- | --- | --- | --- |
| B1 | 98.1 | 72.8 | 72.8 | 0.0156 | 2.338 | 4.372 |  |
| B2 | 90.0 | 77.5 | 76.4 | 0.0194 | 4.361 | 4.638 | 0.84 |

Source: patent US20230122503A1, “ANTI-PSMA RADIOCONJUGATES AND USES THEREOF” (Janssen Biotech, Inc., priority 2021, published 2023)
